Among all 310,000 compounds or so, about 2,200 (0.71%) showed an effect of 50% or more. Effects have a minus sign here. The list shows a part of the results.
What follows are compounds tested against human ether-à-go-go-related gene (hERG) potassium channel (human, UniProt Q12809) (assay: primary screen, population patch clamp on CHO cells stably expressing hERG).
human ether-à-go-go-related gene (hERG) potassium channel, sequence (Q12809 whole entry, looked up): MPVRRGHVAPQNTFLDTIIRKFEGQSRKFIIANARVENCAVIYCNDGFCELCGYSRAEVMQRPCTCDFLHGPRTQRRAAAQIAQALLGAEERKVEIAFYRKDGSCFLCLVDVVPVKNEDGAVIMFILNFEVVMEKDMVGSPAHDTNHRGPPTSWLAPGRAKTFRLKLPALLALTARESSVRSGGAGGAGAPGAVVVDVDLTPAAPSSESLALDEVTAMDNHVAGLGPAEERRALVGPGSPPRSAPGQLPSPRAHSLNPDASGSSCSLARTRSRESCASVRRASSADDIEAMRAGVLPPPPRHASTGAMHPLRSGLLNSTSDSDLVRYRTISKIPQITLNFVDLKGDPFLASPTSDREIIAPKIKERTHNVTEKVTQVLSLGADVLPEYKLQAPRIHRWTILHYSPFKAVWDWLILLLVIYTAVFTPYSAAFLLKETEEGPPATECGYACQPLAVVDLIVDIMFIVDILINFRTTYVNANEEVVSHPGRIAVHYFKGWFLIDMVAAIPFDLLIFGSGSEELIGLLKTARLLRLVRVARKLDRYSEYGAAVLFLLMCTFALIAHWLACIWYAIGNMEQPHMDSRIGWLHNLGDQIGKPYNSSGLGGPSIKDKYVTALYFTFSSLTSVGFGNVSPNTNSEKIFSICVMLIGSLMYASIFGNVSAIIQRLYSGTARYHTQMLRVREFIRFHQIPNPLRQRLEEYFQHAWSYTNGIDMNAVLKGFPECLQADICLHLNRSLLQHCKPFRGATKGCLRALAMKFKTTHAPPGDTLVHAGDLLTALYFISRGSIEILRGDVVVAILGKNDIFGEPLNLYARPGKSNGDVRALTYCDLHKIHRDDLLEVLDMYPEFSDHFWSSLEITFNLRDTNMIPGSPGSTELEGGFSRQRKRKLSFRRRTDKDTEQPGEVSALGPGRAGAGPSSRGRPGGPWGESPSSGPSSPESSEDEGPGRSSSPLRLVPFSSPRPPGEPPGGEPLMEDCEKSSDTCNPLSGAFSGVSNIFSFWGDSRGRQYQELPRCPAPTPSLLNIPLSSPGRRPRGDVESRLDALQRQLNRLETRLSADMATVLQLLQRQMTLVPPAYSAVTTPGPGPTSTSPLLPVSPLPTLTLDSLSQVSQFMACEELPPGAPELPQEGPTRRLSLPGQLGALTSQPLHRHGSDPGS

Row | Compound | hERG current change (%, negative = inhibition) at 1uM
1 | COc1ccc([C@@H]2[C@@H]3C(=O)N(C(C)(C)C)C(=O)[C@@H]3[C@]3(Cc4ccc(Cl)cc4)C(=O)N(c4cccc(Br)c4)C(=O)N23)cc1 | 10.8%
2 | O=C(CSc1nc2ccc([N+](=O)[O-])cc2[nH]1)c1ccc(Cl)cc1 | 12.6%
3 | Cn1c(=O)c2ncn(CC(=O)NCCOc3ccccc3)c2n(C)c1=O | 1.94%
4 | CN1C(=O)C2(C(C#N)=C(N)N(c3cc(Cl)cc(Cl)c3)C3=C2C(=O)CCC3)c2ccccc21 (centres unmarked) | 8.38%
5 | CN(C)c1ccc(NC(=O)Nc2csc3ccccc23)cc1 | 16.7%
6 | CCC1(c2ccccc2)NC(=O)N(CC(=O)Nc2cc(Cl)ccc2N2CCOCC2)C1=O (centres unmarked) | 6.48%
7 | CC(OC(=O)C1=COCCO1)C(=O)Nc1ccc(Cl)cn1 (centres unmarked) | 9.7%
8 | Cc1cc(Cl)ccc1NC(=O)COC(=O)c1c(C)noc1C | 7.79%
9 | CCOC(=O)c1cc(-c2csc(-c3cccc(Cl)c3)n2)on1 | 7.53%
10 | CCSc1cc(C)nc2c(-c3ccccc3)c(C)nn12 | -0.399%
11 | Cc1ccc2ncccc2c1 | 7.95%
12 | O=C(CCN1CCc2ccccc2C1)Nc1ccccc1 | 4.41%
13 | Cc1nc2ccccn2c1C(=O)CSc1cccc(Cl)c1 | 12.9%
14 | O=c1[nH]c(O)c(/C=C2\C=Nc3ccccc32)[nH]1 | 12.5%
15 | O=C(COC(=O)C1CCC1)NCc1ccccc1 | 9.65%
16 | O=C(N/N=C/c1ccc2c(c1)OCO2)c1cccnc1 | 25.6%
17 | Cc1cccc(NC(=O)c2ccc(CN3CCc4ccccc4C3)cc2)c1C | 8.07%
18 | Cc1cccc(C(=O)Nc2cc(C)ccc2NC(=O)COc2ccccc2)c1 | 10.2%
19 | N#Cc1ccc2ccn(CC(=O)NCc3ccco3)c2c1 | -1.21%
20 | Cc1cc(N2CCN(c3ccc(F)cc3)CC2)nc2cc(O)ccc12 | -11.1%
21 | COc1ccc(NC(=O)CCN2CCCCCC2)cc1 | 2.23%
22 | S=C(NCC1CCCO1)NC1CCCCC1 (centres unmarked) | 13.8%
23 | Cn1cc(S(=O)(=O)N2CCOCC2)cc1C(=O)NCCc1ccccc1 | 4.07%

Row | Compound | hERG current change (%, negative = inhibition) at 1uM
24 | O=C(NCCN1C(=O)S/C(=C\c2cccs2)C1=O)[C@H](Cc1ccccc1)N1C(=O)c2ccccc2C1=O | 8.46%
25 | CCNC(=S)Nc1ccc(Cl)cc1 | 13.4%
26 | Cc1sc2ccc3sccc3c2[n+]1C.[I-] | 12.6%
27 | CC(C)c1ccc(OCC(=O)NC(C)c2ccccc2)cc1 (centres unmarked) | 4.8%
28 | CC(C)(/C=N/O)/[N+]([O-])=C/c1ccco1 | 9.65%
29 | CSc1ccccc1NC(=O)CN1c2ccccc2CC1C (centres unmarked) | 8.76%
30 | O=C(O)CNS(=O)(=O)c1ccc2c(c1)Cc1cc(S(=O)(=O)NCC(=O)O)ccc1-2 | 8.35%
31 | Cc1ccc(C(=O)Nc2ccccc2C(=O)N2CCCCC2C)cc1 (centres unmarked) | 15.5%
32 | O=C(Oc1ccc2ccc(=O)oc2c1)c1ccco1 | -53.7%
33 | NNC(=O)c1ccc2nc(-c3ccc(Br)cc3)cn2c1 | -17%
34 | O=C(O)CCCN=CC1=C(O)CNC1=O | -8.82%
35 | O=C(Nc1nc2ccccc2s1)C1CC(=O)N(c2ccccc2)C1 (centres unmarked) | 6.89%
36 | CC1(C)C(=O)NCCN1C(=O)c1ccc2nc(Cc3ccccc3F)oc2c1 | 13.6%
37 | CCn1c(SCC(=O)NC2CCCC2)nnc1-c1c[nH]c2ccccc12 | 10.7%
38 | Nc1cc(Cl)cc(Cl)c1 | 9.32%
39 | O=C1CC(C(=O)Nc2cccc(Cl)c2)n2ncnc2N1 (centres unmarked) | 12%
40 | COC(=O)c1ccc(CSc2nc3cc(Cl)ccc3o2)cc1 | 11.9%
41 | COc1cc(C(=O)N/N=C/C23CC[C@@H](O)CC2(O)CC[C@@H]2[C@@H]3CCC3(C)C(C4=CC(=O)OC4)CCC23O)ccc1O (some centres unmarked) | 16.3%
42 | O=C(NNC(=O)c1ccc2c(=O)n3c(nc2c1)CCC3)c1cccc(Cl)c1 | 6.31%
43 | NC(=S)Nc1ccc(S(=O)(=O)c2ccc(NC(N)=S)cc2)cc1 | 15.6%
44 | COc1cccc(-n2cnnc2SCC(=O)NC2CC2)c1 | 11%
45 | COc1ccc(/C=N\Nc2ncc(F)c(N3CCOCC3)n2)cc1OC | 0.991%
46 | O=C(NC1CCCC1)C(c1cccnc1)N(C(=O)c1ccco1)c1ccc(F)cc1 (centres unmarked) | 16.7%

Row | Compound | hERG current change (%, negative = inhibition) at 1uM
47 | COc1cccc(Nc2nc3ccc(OC)cc3s2)c1 | 8.62%
48 | COc1ccc(/C=C/C(=O)Nc2ccc(S(=O)(=O)N3CCOCC3)cc2)c(OC)c1 | 15%
49 | CN(Cc1ccc(O)cc1)C1CCCCC1 | -12.4%
50 | O=S(=O)(c1ccc2c(c1)OCCO2)N1CCN(c2cccc(Cl)c2)CC1 | 9.98%
51 | NC(=S)c1ccc(C(N)=S)o1 | 6.81%
52 | CC(=O)NC(CC(=O)OC(C)C(=O)Nc1ccc(Cl)cn1)c1ccccc1 (centres unmarked) | 10.4%
53 | Cc1ccc(Cl)cc1N1CCN(C(=O)C2CCC(=O)N2C(C)C)CC1 (centres unmarked) | -0.413%
54 | CCOC(=O)CSc1nc2ccccc2c(=O)n1C | 14.3%
55 | CCOc1ccccc1OC(C)C(=O)Nc1ccc(S(=O)(=O)N2CCCC2)cc1 (centres unmarked) | 9.07%
56 | COc1ccc(CNC(=O)C(c2ccncc2)N(C(=O)Cc2cccs2)c2cccc(C)c2)cc1 (centres unmarked) | -2.74%
57 | CC(C)CCNC(=O)C(=O)NCc1ccccc1 | 0.144%
58 | Cc1cc(C(=O)N2CCN(C(c3ccccc3)c3ccccc3)CC2)on1 | -3.82%
59 | CC(C)Cc1nnc(NC(=O)Cc2cccs2)s1 | 12.3%
60 | O=c1sc(N2CCN(c3ccc(F)cc3)CC2)nc2ccsc12 | 9.33%
61 | Cn1c(CC(=O)Nc2ccccc2Cl)nnc1SCC(=O)NC1=NCCS1 | 16%
62 | O=C(CN(Cc1ccccc1)C(=O)CNS(=O)(=O)c1ccc(F)cc1)NCC1CCCO1 (centres unmarked) | 10.9%
63 | CCOC(=O)c1c(OCC)[nH]c2ccc(O)cc12 | -1.01%
64 | COc1ccc(-c2nsc3c(N4CCN(S(=O)(=O)c5ccccc5F)CC4)ncnc23)cc1 | 3.59%
65 | O=C(CSc1nnc(-c2ccc(NS(=O)(=O)c3ccccc3)cc2)o1)NCC1CCCO1 (centres unmarked) | 16.5%
66 | CCOC(=O)N1CCN(Cc2nc(-c3cccc(C)c3)no2)CC1 | -9.93%
67 | CCOc1cc(C2C(C#N)=C(N)Oc3n[nH]c(C)c32)ccc1OCCN1CCOCC1 (centres unmarked) | 13.9%
68 | CC(C)n1c(SCc2ccc(Cl)cc2)nc2c1c(=O)[nH]c(=O)n2C | 13.3%
69 | CC(=O)Nc1cccc(N2CCCC2=O)c1 | 4.99%

Row | Compound | hERG current change (%, negative = inhibition) at 1uM
70 | CC(C)[C@H](NC(=O)c1ccco1)C(=O)OCC(=O)NC12CC3CC(CC(C3)C1)C2 | 3.18%
71 | COc1cccc(-c2cn3nc4c(nc3n2)CCCC4)c1 | -9.76%
72 | CCOC(=O)N1CCC(NC(=O)CC(NS(=O)(=O)c2ccc(Cl)cc2)c2ccco2)CC1 (centres unmarked) | -2.12%
73 | O=C(NC1CCCCC1)NC1CC2CCC(C1)N2C(=S)NCc1ccco1 (centres unmarked) | 0.0086%
74 | COc1cccc(C(=O)NNC(=O)C2CC(C)=C(C)CC2C(=O)O)c1 (centres unmarked) | 10.1%
75 | N#CCCn1ccc(NC(=O)c2ccc(Cl)cc2)n1 | 20.9%
76 | COc1ccc2c(c1OC)C(=O)N(c1ncn[nH]1)C2 | 14%
77 | O=C(CCC1CCCCC1)NCc1ccccn1 | 4.48%
78 | O=C(/C=C/c1ccc(F)cc1)NCCNC(=O)/C=C/c1ccc(F)cc1 | 16.8%
79 | CCc1ccc(-c2nc(CS(=O)CC(=O)NCCc3ccccc3)c(C)o2)cc1 (centres unmarked) | 15.9%
80 | CC1=C(C(N)=O)C(c2cccs2)NC(=O)N1 (centres unmarked) | 4.07%
81 | CCc1nnc(NC(=O)CCC(=O)N2CCN(c3cc(Cl)ccc3C)CC2)s1 | 6.2%
82 | CC(=O)Oc1ccc(NC(=O)CSc2ccccc2)cc1 | -1.08%
83 | CCN(CC)CCN(C(=O)C1=COCCO1)c1nc2cc3c(cc2s1)OCO3.Cl | -63.3%
84 | O=C(CSc1oc(-c2ccco2)nc1S(=O)(=O)c1ccc(F)cc1)NCC1CCCO1 (centres unmarked) | -1.9%
85 | O=C(Cc1ccc(F)cc1)c1ccc(O)cc1O | 12.8%
86 | CCn1cc(C(=O)N2CCN(c3ccccc3F)CC2)c(=O)c2ccc(C)nc21 | 7.11%
87 | OCC1CCCN(C2CCN(Cc3nc(Cc4cccc(C(F)(F)F)c4)no3)CC2)C1 (centres unmarked) | -17.5%
88 | CC(=O)Oc1cc2c(C(=O)NCc3ccncc3)c(C)oc2c2ccccc12 | 10.3%
89 | Cc1nc2c(c(C)nn2-c2ccccc2)c(C)c1CCC(=O)N1CCC2(CC1)OCCO2 | -3.22%
90 | Cc1ccc(NC(=O)NC(=O)CN2CCN(c3ccc(O)cc3)CC2)c(C)c1 | 11.1%
91 | COc1c(-c2ccccc2)oc2c(ccc3occc32)c1=O | 14.9%
92 | O=C(CSc1nnc(CCc2nc3ccccc3[nH]2)n1-c1ccccc1)NCc1ccco1 | -0.738%

— article PMC4336329 (PLoS ONE, 2015)
